# Assay results reported in the supplement of paper PMC8728848.
# The list shows a part of the results.
# B1: PX14367A-bth-493-35-493 (Bacteroides thetaiotaomicron) (protein)
# chain: VSSDQVAVAGNAERLFNGAWYNLFEYGTTYANIGYRALQCQDDMMASDVVSRPKYGFNSSYQFNDVAIPSDGRTSFAWYLIYKTIDNCNTAISIKGDSEELRQAQGQALALRAFCYLHLVQHYQFTYLKDKDAPCVPIYTEPTTSGTKPKGKSTVAQVYQQIFDDLNLAQDYLTNYVRKGDGQKFKPNTDVVNGLMARAYLLTGQWGEAAKAAEAARKGYSLMTTTAEYEGFNNISNKEWIWGSPQTLSQSDASYNFYYLDATYVGAYSSFMADPHLMDTFVKGDIRLPLFQWMREGYLGYKKFHMRSDDTADLVLMRSAEMYLIEAEAKVRDGVALDQAVAPLNTLRTARGVGNYDVTGKTKEQVIDEILMERRRELWGEGFGITDVLRNQKAVERMALSEDMQKTEVDCWQEGGSFAKRNPLGHWFLNFPDGKAFSANSSYYLYAIPEKEINANPNL
# Key:
# Assay in all cases: glycan array binding signal (z-score within array); higher = stronger binding
# Details in all cases: glycan notation: IUPAC condensed, linker removed
# [1] = molecular target: Man(a1-2)Man(a1-3)[Man(a1-2)Man(a1-6)]Man(a1-6)[Man(a1-2)Man(a1-2)Man(a1-3)]Man
# Summary of the method: (§1)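 The Consortium for Functional Glycomics database supplied 3228 glycan arrays, of which those lacking an available protein sequence were dropped. The binding signal, a within-array Z-score, was averaged across arrays of the same protein sequence and across linkers. Negative scores can be read as non-binding.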
# [2] = molecular target: Man(a1-2)Man(a1-3)[Man(a1-2)Man(a1-6)]Man(a1-6)[Man(a1-2)Man(a1-2)Man(a1-3)]Man(b1-4)GlcNAc(b1-4)GlcNAc
# Summary of the method: as §1
# [3] = molecular target: Man(a1-2)Man(a1-3)[Man(a1-6)]Man(a1-6)[Man(a1-2)Man(a1-3)]Man(b1-4)GlcNAc(b1-4)GlcNAc
# Summary of the method: as §1
# [4] = molecular target: Man(a1-2)Man(a1-6)[Man(a1-3)]Man(a1-6)[Man(a1-2)Man(a1-2)Man(a1-3)]Man
# Summary of the method: as §1
# [5] = molecular target: Man(a1-2)Man(a1-6)[Man(a1-3)]Man(a1-6)[Man(a1-2)Man(a1-2)Man(a1-3)]Man(b1-4)GlcNAc(b1-4)GlcNAc
# Summary of the method: as §1
# Man(a1-3)[Man(a1-6)]Man = molecular target: Man(a1-3)[Man(a1-6)]Man
# Summary of the method: as §1
# [6] = molecular target: Man(a1-3)[Man(a1-6)]Man(a1-6)[Man(a1-2)Man(a1-3)]Man(b1-4)GlcNAc(b1-4)GlcNAc
# Summary of the method: as §1
# [7] = molecular target: Man(a1-3)[Man(a1-6)]Man(a1-6)[Man(a1-3)]Man
# Summary of the method: as §1
# [8] = molecular target: Man(a1-3)[Man(a1-6)]Man(a1-6)[Man(a1-3)]Man(b1-4)GlcNAc(b1-4)GlcNAc
# Summary of the method: as §1
# [9] = molecular target: Man(a1-3)[Man(a1-6)]Man(b1-4)GlcNAc(b1-4)GlcNAc
# Summary of the method: as §1
# [10] = molecular target: Man(a1-3)[Man(a1-6)]Man(b1-4)GlcNAc(b1-4)[Fuc(a1-6)]GlcNAc
# Summary of the method: as §1
# Man(a1-6)Man = molecular target: Man(a1-6)Man
# Summary of the method: as §1
# Man(b1-4)GlcNAc = molecular target: Man(b1-4)GlcNAc
# Summary of the method: as §1
# MurNAc(b1-4)GlcNAc = molecular target: MurNAc(b1-4)GlcNAc
# Summary of the method: as §1
# Neu5Ac(a2-3)Gal = molecular target: Neu5Ac(a2-3)Gal
# Summary of the method: as §1
# [11] = molecular target: Neu5Ac(a2-3)Gal(b1-3)GalNAc
# Summary of the method: as §1
# [12] = molecular target: Neu5Ac(a2-3)Gal(b1-3)GalNAc(b1-3)Gal(a1-4)Gal(b1-4)Glc
# Summary of the method: as §1
# [13] = molecular target: Neu5Ac(a2-3)Gal(b1-3)GalNAc(b1-4)[Neu5Ac(a2-3)]Gal(b1-4)Glc
# Summary of the method: as §1
# [14] = molecular target: Neu5Ac(a2-3)Gal(b1-3)GalNAc(b1-4)[Neu5Ac(a2-8)Neu5Ac(a2-3)]Gal(b1-4)Glc
# Summary of the method: as §1
# [15] = molecular target: Neu5Ac(a2-3)Gal(b1-3)GalNAc6S
# Summary of the method: as §1
# [16] = molecular target: Neu5Ac(a2-3)Gal(b1-3)GlcNAc
# Summary of the method: as §1
# [17] = molecular target: Neu5Ac(a2-3)Gal(b1-3)GlcNAc(b1-2)Man
# Summary of the method: as §1
# [18] = molecular target: Neu5Ac(a2-3)Gal(b1-3)GlcNAc(b1-2)Man(a1-3)[GlcNAc(b1-4)][Neu5Ac(a2-3)Gal(b1-3)GlcNAc(b1-2)Man(a1-6)]Man(b1-4)GlcNAc(b1-4)GlcNAc
# Summary of the method: as §1
# [19] = molecular target: Neu5Ac(a2-3)Gal(b1-3)GlcNAc(b1-2)Man(a1-3)[Neu5Ac(a2-3)Gal(b1-3)GlcNAc(b1-2)Man(a1-6)]Man(b1-4)GlcNAc(b1-4)GlcNAc
# Summary of the method: as §1
# [20] = molecular target: Neu5Ac(a2-3)Gal(b1-3)GlcNAc(b1-3)Gal(b1-3)GlcNAc
# Summary of the method: as §1
# [21] = molecular target: Neu5Ac(a2-3)Gal(b1-3)GlcNAc(b1-3)Gal(b1-4)GlcNAc
# Summary of the method: as §1
# [22] = molecular target: Neu5Ac(a2-3)Gal(b1-3)GlcNAc(b1-3)GalNAc
# Summary of the method: as §1
# [23] = molecular target: Neu5Ac(a2-3)Gal(b1-3)GlcNAc(b1-4)Gal(b1-4)Glc
# Summary of the method: as §1
# [24] = molecular target: Neu5Ac(a2-3)Gal(b1-3)GlcNAc(b1-6)GalNAc
# Summary of the method: as §1
# [25] = molecular target: Neu5Ac(a2-3)Gal(b1-3)GlcNAc6S
# Summary of the method: as §1
# [26] = molecular target: Neu5Ac(a2-3)Gal(b1-3)[Fuc(a1-4)]GlcNAc
# Summary of the method: as §1
# [27] = molecular target: Neu5Ac(a2-3)Gal(b1-3)[Fuc(a1-4)]GlcNAc(b1-3)Gal(b1-3)[Fuc(a1-4)]GlcNAc
# Summary of the method: as §1
# [28] = molecular target: Neu5Ac(a2-3)Gal(b1-3)[Fuc(a1-4)]GlcNAc(b1-3)Gal(b1-4)[Fuc(a1-3)]GlcNAc
# Summary of the method: as §1
# [29] = molecular target: Neu5Ac(a2-3)Gal(b1-3)[GlcNAc(b1-6)]GalNAc
# Summary of the method: as §1
# [30] = molecular target: Neu5Ac(a2-3)Gal(b1-3)[Neu5Ac(a2-6)]GalNAc
# Summary of the method: as §1
# [31] = molecular target: Neu5Ac(a2-3)Gal(b1-3)[Neu5Ac(a2-6)]GlcNAc(b1-3)[Fuc(a1-3)[Gal(b1-4)]GlcNAc(b1-6)]Gal(b1-4)Glc
# Summary of the method: as §1
# [32] = molecular target: Neu5Ac(a2-3)Gal(b1-3)]Neu5Ac(a2-3)Gal(b1-4)]GlcNAc
# Summary of the method: as §1
binder,measurement,setting,value
B1,glycan array binding signal (z-score),[1],-0.145
same,glycan array binding signal (z-score),[2],-0.193
same,glycan array binding signal (z-score),[3],-0.608
same,glycan array binding signal (z-score),[4],0.14
same,glycan array binding signal (z-score),[5],-0.419
same,glycan array binding signal (z-score),Man(a1-3)[Man(a1-6)]Man,-0.744
same,glycan array binding signal (z-score),[6],-0.483
same,glycan array binding signal (z-score),[7],-0.034
same,glycan array binding signal (z-score),[8],-0.196
same,glycan array binding signal (z-score),[9],0.166
same,glycan array binding signal (z-score),[10],-0.393
same,glycan array binding signal (z-score),Man(a1-6)Man,0.932
same,glycan array binding signal (z-score),Man(b1-4)GlcNAc,-0.264
same,glycan array binding signal (z-score),MurNAc(b1-4)GlcNAc,-0.441
same,glycan array binding signal (z-score),Neu5Ac(a2-3)Gal,-0.216
same,glycan array binding signal (z-score),[11],-0.407
same,glycan array binding signal (z-score),[12],-0.232
same,glycan array binding signal (z-score),[13],0.239
same,glycan array binding signal (z-score),[14],-0.448
same,glycan array binding signal (z-score),[15],-0.149
same,glycan array binding signal (z-score),[16],-0.474
same,glycan array binding signal (z-score),[17],-0.388
same,glycan array binding signal (z-score),[18],-0.15
same,glycan array binding signal (z-score),[19],0.079
same,glycan array binding signal (z-score),[20],-0.589
same,glycan array binding signal (z-score),[21],-0.294
same,glycan array binding signal (z-score),[22],-0.042
same,glycan array binding signal (z-score),[23],-0.755
same,glycan array binding signal (z-score),[24],-0.34
same,glycan array binding signal (z-score),[25],-0.59
same,glycan array binding signal (z-score),[26],0.065
same,glycan array binding signal (z-score),[27],0.054
same,glycan array binding signal (z-score),[28],0.257
same,glycan array binding signal (z-score),[29],-0.143
same,glycan array binding signal (z-score),[30],-0.079
same,glycan array binding signal (z-score),[31],-0.287
same,glycan array binding signal (z-score),[32],0.342
